Experimental data reported in patent publication US8722910B2, “Diyne compositions” (Evolva AG, priority 2009, dated 2014).

System: Candida albicans
Assay: In vitro fungicidal activity vs. Candida albicans
Conditions: growth-negative samples after 24 hr incubation, subcultured

## O=C(O)CCCCCCC/C=C\C#CC#Cc1ccco1 [Compound III″]
  reduction of the original inoculum: greater than 99.9%
